This is an account of results in the supplement of paper PMC12230231.

± gives the standard deviation of the averaged measurements. Restriction of a single-cycle SIVsab GFP reporter by TRIM5α v1-loop variants in CRFK cells. Human variants: read share among cells still uninfected after two challenges over input, higher = gained restriction. Rhesus variants: share among infected cells over input, higher = lost restriction. Reporter dose not given per row. No active / inactive call per row; the paper calls a change when both replicates lie above its controls (mean + 2 SD of stop or wild-type variants, or the top frameshift score). Residues outside the varied loop are taken from Swiss-Prot. The paper reads the human single-substitution scores as noise; they and the rhesus combinations repeat poorly (rank correlation 0.3 to 0.4), indel scores repeat only for the top variants, rhesus substitutions well (0.9).

The data set concerns SIVsab (simian immunodeficiency virus of sabaeus monkeys), single-cycle GFP reporter, in CRFK cells. Put plainly: enrichment among uninfected cells over input (fold); higher = stronger restriction. The settings on record: library: insertions and deletions. On the procedure: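 Pools of CRFK cells expressing variants of the TRIM5α v1 loop were challenged with the single-cycle reporter, sorted by GFP and sequenced; mean of two replicates.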
“MASGILVNVKEEVTCPICLELLTQPLSLDCGHSFCQACLTANHKKSMLDKGESSCPVCRISYQPENIRPNRHVANIVEKLREVKLSPEGQKVDHCARHGEKLLLFCQEDGKVICWLCERSQEHRGHHTFLTEEVAREYQVKLQAALEMLRQKQQEAEELEADIREEKASWKTQIQYDKTNVLADFEQLRDILDWEESNELQNLEKEEEDILKSLTNSETEMVQQTQSLRELISDLEHRLQGSVMELLQGVDGVIKRTENVTLKKPETFPKNQRRVFRAPDLKGMLEVFRELTDVRRYWVDVTVAPNNISCAVISEDKRQVSSPKPQIIYGQIIYGARGTRYQTFVNFNYCTGILGSQSITSGKHYWEVDVSKKTAWILGVCAGFQPDAMCNIEKNENYQPKYGYWVIGLEEGVKCSAFQDSSFHTPSVPFIVPLSVIICPDRVGVFLDYEACTVSFFNITNHGFLIYKFSHCSFSQPVFPYLNPRKCGVPMTLCSPSS [human TRIM5α, 5-codon duplication at 326]” had an enrichment of 0.428 ± 0.23.

Sequence “MASGILVNVKEEVTCPICLELLTQPLSLDCGHSFCQACLTANHKKSMLDKGESSCPVCRISYQPENIRPNRHVANIVEKLREVKLSPEGQKVDHCARHGEKLLLFCQEDGKVICWLCERSQEHRGHHTFLTEEVAREYQVKLQAALEMLRQKQQEAEELEADIREEKASWKTQIQYDKTNVLADFEQLRDILDWEESNELQNLEKEEEDILKSLTNSETEMVQQTQSLRELISDLEHRLQGSVMELLQGVDGVIKRTENVTLKKPETFPKNQRRVFRAPDLKGMLEVFRELTDVRRYWVDVTVAPNNISCAVISEDKRQVSSPKPQIIYGQTFVNFNYCTGILGSQSITSGKHYWEVDVSKKTAWILGVCAGFQPDAMCNIEKNENYQPKYGYWVIGLEEGVKCSAFQDSSFHTPSVPFIVPLSVIICPDRVGVFLDYEACTVSFFNITNHGFLIYKFSHCSFSQPVFPYLNPRKCGVPMTLCSPSS [human TRIM5α, 6-codon deletion at 331]” registered an enrichment of 1.28 ± 1.5.

Sequence “MASGILVNVKEEVTCPICLELLTQPLSLDCGHSFCQACLTANHKKSMLDKGESSCPVCRISYQPENIRPNRHVANIVEKLREVKLSPEGQKVDHCARHGEKLLLFCQEDGKVICWLCERSQEHRGHHTFLTEEVAREYQVKLQAALEMLRQKQQEAEELEADIREEKASWKTQIQYDKTNVLADFEQLRDILDWEESNELQNLEKEEEDILKSLTNSETEMVQQTQSLRELISDLEHRLQGSVMELLQGVDGVIKRTENVTLKKPETFPKNQRRVFRAPDLKGMLEVFRELTDVRRYWVDVTVAPNNISCAVISEDKRQVSSPKPQIIYGRGTRYQTFVNFNYCTGILGSQSITSGKHYWEVDVSKKTAWILGVCAGFQPDAMCNIEKNENYQPKYGYWVIGLEEGVKCSAFQDSSFHTPSVPFIVPLSVIICPDRVGVFLDYEACTVSFFNITNHGFLIYKFSHCSFSQPVFPYLNPRKCGVPMTLCSPSS [human TRIM5α, 1-codon deletion at 331]” had an enrichment of 1.22 ± 0.82. The result for “MASGILVNVKEEVTCPICLELLTQPLSLDCGHSFCQACLTANHKKSMLDKGESSCPVCRISYQPENIRPNRHVANIVEKLREVKLSPEGQKVDHCARHGEKLLLFCQEDGKVICWLCERSQEHRGHHTFLTEEVAREYQVKLQAALEMLRQKQQEAEELEADIREEKASWKTQIQYDKTNVLADFEQLRDILDWEESNELQNLEKEEEDILKSLTNSETEMVQQTQSLRELISDLEHRLQGSVMELLQGVDGVIKRTENVTLKKPETFPKNQRRVFRAPDLKGMLEVFRELTDVRRYWVDVTVAPNNISCAVISEDKRQVSSPKPQIIYGRYQTFVNFNYCTGILGSQSITSGKHYWEVDVSKKTAWILGVCAGFQPDAMCNIEKNENYQPKYGYWVIGLEEGVKCSAFQDSSFHTPSVPFIVPLSVIICPDRVGVFLDYEACTVSFFNITNHGFLIYKFSHCSFSQPVFPYLNPRKCGVPMTLCSPSS [human TRIM5α, 4-codon deletion at 331]” reads 1.27 ± 0.34; that for “MASGILVNVKEEVTCPICLELLTQPLSLDCGHSFCQACLTANHKKSMLDKGESSCPVCRISYQPENIRPNRHVANIVEKLREVKLSPEGQKVDHCARHGEKLLLFCQEDGKVICWLCERSQEHRGHHTFLTEEVAREYQVKLQAALEMLRQKQQEAEELEADIREEKASWKTQIQYDKTNVLADFEQLRDILDWEESNELQNLEKEEEDILKSLTNSETEMVQQTQSLRELISDLEHRLQGSVMELLQGVDGVIKRTENVTLKKPETFPKNQRRVFRAPDLKGMLEVFRELTDVRRYWVDVTVAPNNISCAVISEDKRQVSSPKPQIIYGTFVNFNYCTGILGSQSITSGKHYWEVDVSKKTAWILGVCAGFQPDAMCNIEKNENYQPKYGYWVIGLEEGVKCSAFQDSSFHTPSVPFIVPLSVIICPDRVGVFLDYEACTVSFFNITNHGFLIYKFSHCSFSQPVFPYLNPRKCGVPMTLCSPSS [human TRIM5α, 7-codon deletion at 331]”, 0.723 ± 0.03; that for “MASGILVNVKEEVTCPICLELLTQPLSLDCGHSFCQACLTANHKKSMLDKGESSCPVCRISYQPENIRPNRHVANIVEKLREVKLSPEGQKVDHCARHGEKLLLFCQEDGKVICWLCERSQEHRGHHTFLTEEVAREYQVKLQAALEMLRQKQQEAEELEADIREEKASWKTQIQYDKTNVLADFEQLRDILDWEESNELQNLEKEEEDILKSLTNSETEMVQQTQSLRELISDLEHRLQGSVMELLQGVDGVIKRTENVTLKKPETFPKNQRRVFRAPDLKGMLEVFRELTDVRRYWVDVTVAPNNISCAVISEDKRQVSSPKPQIIYGTRYQTFVNFNYCTGILGSQSITSGKHYWEVDVSKKTAWILGVCAGFQPDAMCNIEKNENYQPKYGYWVIGLEEGVKCSAFQDSSFHTPSVPFIVPLSVIICPDRVGVFLDYEACTVSFFNITNHGFLIYKFSHCSFSQPVFPYLNPRKCGVPMTLCSPSS [human TRIM5α, 3-codon deletion at 330]”, 0.559 ± 0.052.

The sequence “MASGILVNVKEEVTCPICLELLTQPLSLDCGHSFCQACLTANHKKSMLDKGESSCPVCRISYQPENIRPNRHVANIVEKLREVKLSPEGQKVDHCARHGEKLLLFCQEDGKVICWLCERSQEHRGHHTFLTEEVAREYQVKLQAALEMLRQKQQEAEELEADIREEKASWKTQIQYDKTNVLADFEQLRDILDWEESNELQNLEKEEEDILKSLTNSETEMVQQTQSLRELISDLEHRLQGSVMELLQGVDGVIKRTENVTLKKPETFPKNQRRVFRAPDLKGMLEVFRELTDVRRYWVDVTVAPNNISCAVISEDKRQVSSPKPQIIYGTRYQTFVNFNYCTGILGSQSITSGKHYWEVDVSKKTAWILGVCAGFQPDAMCNIEKNENYQPKYGYWVIGLEEGVKCSAFQDSSFHTPSVPFIVPLSVIICPDRVGVFLDYEACTVSFFNITNHGFLIYKFSHCSFSQPVFPYLNPRKCGVPMTLCSPSS [human TRIM5α, 3-codon deletion at 331]” gave an enrichment of 0.559 ± 0.052. In the case of “MASGILVNVKEEVTCPICLELLTQPLSLDCGHSFCQACLTANHKKSMLDKGESSCPVCRISYQPENIRPNRHVANIVEKLREVKLSPEGQKVDHCARHGEKLLLFCQEDGKVICWLCERSQEHRGHHTFLTEEVAREYQVKLQAALEMLRQKQQEAEELEADIREEKASWKTQIQYDKTNVLADFEQLRDILDWEESNELQNLEKEEEDILKSLTNSETEMVQQTQSLRELISDLEHRLQGSVMELLQGVDGVIKRTENVTLKKPETFPKNQRRVFRAPDLKGMLEVFRELTDVRRYWVDVTVAPNNISCAVISEDKRQVSSPKPQIIYGVNFNYCTGILGSQSITSGKHYWEVDVSKKTAWILGVCAGFQPDAMCNIEKNENYQPKYGYWVIGLEEGVKCSAFQDSSFHTPSVPFIVPLSVIICPDRVGVFLDYEACTVSFFNITNHGFLIYKFSHCSFSQPVFPYLNPRKCGVPMTLCSPSS [human TRIM5α, 9-codon deletion at 331]” it was 1.08 ± 0.49. On to “MASGILVNVKEEVTCPICLELLTQPLSLDCGHSFCQACLTANHKKSMLDKGESSCPVCRISYQPENIRPNRHVANIVEKLREVKLSPEGQKVDHCARHGEKLLLFCQEDGKVICWLCERSQEHRGHHTFLTEEVAREYQVKLQAALEMLRQKQQEAEELEADIREEKASWKTQIQYDKTNVLADFEQLRDILDWEESNELQNLEKEEEDILKSLTNSETEMVQQTQSLRELISDLEHRLQGSVMELLQGVDGVIKRTENVTLKKPETFPKNQRRVFRAPDLKGMLEVFRELTDVRRYWVDVTVAPNNISCAVISEDKRQVSSPKPQIIYGYGARGTRYQTFVNFNYCTGILGSQSITSGKHYWEVDVSKKTAWILGVCAGFQPDAMCNIEKNENYQPKYGYWVIGLEEGVKCSAFQDSSFHTPSVPFIVPLSVIICPDRVGVFLDYEACTVSFFNITNHGFLIYKFSHCSFSQPVFPYLNPRKCGVPMTLCSPSS [human TRIM5α, 2-codon duplication at 329]”, for which the enrichment stood at 0.98 ± 0.27. As for “MASGILVNVKEEVTCPICLELLTQPLSLDCGHSFCQACLTANHKKSMLDKGESSCPVCRISYQPENIRPNRHVANIVEKLREVKLSPEGQKVDHCARHGEKLLLFCQEDGKVICWLCERSQEHRGHHTFLTEEVAREYQVKLQAALEMLRQKQQEAEELEADIREEKASWKTQIQYDKTNVLADFEQLRDILDWEESNELQNLEKEEEDILKSLTNSETEMVQQTQSLRELISDLEHRLQGSVMELLQGVDGVIKRTENVTLKKPETFPKNQRRVFRAPDLKGMLEVFRELTDVRRYWVDVTVAPNNISCAVISEDKRQVSSPKPQIIYGYQTFVNFNYCTGILGSQSITSGKHYWEVDVSKKTAWILGVCAGFQPDAMCNIEKNENYQPKYGYWVIGLEEGVKCSAFQDSSFHTPSVPFIVPLSVIICPDRVGVFLDYEACTVSFFNITNHGFLIYKFSHCSFSQPVFPYLNPRKCGVPMTLCSPSS [human TRIM5α, 5-codon deletion at 331]”, the enrichment was 0.873 ± 0.55. The result for “MASGILVNVKEEVTCPICLELLTQPLSLDCGHSFCQACLTANHKKSMLDKGESSCPVCRISYQPENIRPNRHVANIVEKLREVKLSPEGQKVDHCARHGEKLLLFCQEDGKVICWLCERSQEHRGHHTFLTEEVAREYQVKLQAALEMLRQKQQEAEELEADIREEKASWKTQIQYDKTNVLADFEQLRDILDWEESNELQNLEKEEEDILKSLTNSETEMVQQTQSLRELISDLEHRLQGSVMELLQGVDGVIKRTENVTLKKPETFPKNQRRVFRAPDLKGMLEVFRELTDVRRYWVDVTVAPNNISCAVISEDKRQVSSPKPQIIYIIYGARGTRYQTFVNFNYCTGILGSQSITSGKHYWEVDVSKKTAWILGVCAGFQPDAMCNIEKNENYQPKYGYWVIGLEEGVKCSAFQDSSFHTPSVPFIVPLSVIICPDRVGVFLDYEACTVSFFNITNHGFLIYKFSHCSFSQPVFPYLNPRKCGVPMTLCSPSS [human TRIM5α, 3-codon duplication at 327]” reads 2.52 ± 0.82.

Sequence “MASGILVNVKEEVTCPICLELLTQPLSLDCGHSFCQACLTANHKKSMLDKGESSCPVCRISYQPENIRPNRHVANIVEKLREVKLSPEGQKVDHCARHGEKLLLFCQEDGKVICWLCERSQEHRGHHTFLTEEVAREYQVKLQAALEMLRQKQQEAEELEADIREEKASWKTQIQYDKTNVLADFEQLRDILDWEESNELQNLEKEEEDILKSLTNSETEMVQQTQSLRELISDLEHRLQGSVMELLQGVDGVIKRTENVTLKKPETFPKNQRRVFRAPDLKGMLEVFRELTDVRRYWVDVTVAPNNISCAVISEDKRQVSSPKPQIIYIYGARGTRYQTFVNFNYCTGILGSQSITSGKHYWEVDVSKKTAWILGVCAGFQPDAMCNIEKNENYQPKYGYWVIGLEEGVKCSAFQDSSFHTPSVPFIVPLSVIICPDRVGVFLDYEACTVSFFNITNHGFLIYKFSHCSFSQPVFPYLNPRKCGVPMTLCSPSS [human TRIM5α, 2-codon duplication at 328]” gave an enrichment of 1.11 ± 0.24.
